In all, about 150,000 compounds went through this assay and about 540 (0.36%) showed an effect of 50% or more. The list shows a part of the results.
system: Plasmodium falciparum; assay: Primary screen in NF54 nanoGlo assay, in single point, at 2uM, 72h; a lower Z score goes with more inhibition; format: functional, Erythrocyte; details: timepoint 72 hour

Row | SMILES | % Inhibition [%] | Z score
1 | Cc1c(CN(C)C(=O)CCN(C)[C@H]2CCN(C)C2)[nH]c2ccccc12 | -15 | 2.12
2 | CCN(CC(F)(F)F)C(=O)NCCc1scnc1C | -10 | 1.44
3 | COCc1nc2n(n1)CC(NC1CCCCc3ccccc31)CC2 (stereo unspecified) | -16 | 2.36
4 | Cc1cc(CN(C)c2cc(C(=O)N3CCOCC3)ccn2)no1 | 1 | -0.12
5 | Cc1cc(C)c2ncn([C@H]3CCC(=O)N(C)C3)c(=O)c2c1 | -21 | 2.47
6 | CC(C)C1(C(=O)N2CCC(n3cn[nH]c3=O)CC2)COC1 | -6 | 1.3
7 | Cc1ccc2[nH]cc(-c3ncccc3C(=O)O)c2c1 | -15 | 1.96
8 | CCOC(=O)Nc1cccc(N[C@@H](C)c2cnn(C)c2)c1C | 5 | -0.48
9 | CCC(=O)c1cccc(S(=O)(=O)Nc2ccc3[nH]nnc3c2)c1 | -14 | 1.31
10 | COC1(CO)CCN(C(=O)NCc2ccc(C3CC3)cc2F)CC1 | -11 | 1.66
11 | Cc1csc(CCNC(=O)Cc2c(C)[nH][nH]c2=O)n1 | -5 | 0.94
12 | O=S(=O)(Nc1ccc(N2CCOCC2)cc1)c1ccc(-c2nnc(C3CCCC3)o2)o1 | -13 | 1.76
13 | Cc1cnccc1N1CCn2c(Cc3cccc(F)c3)nnc2C1 | 9 | -1.2
14 | CCOc1ccc(OCC(=O)N2CC(CC)N(C(C)=O)CC2CC)cc1 (stereo unspecified) | -10 | 1.09
15 | O=C(NCc1cccc(C(F)(F)F)c1)c1csc(CN2CCC(Cc3ccccc3)CC2)n1 | -12 | 1.96
16 | O=C(O)c1cccc(N2N=C(c3ccc4c5c(cccc35)C(=O)N(c3ccccc3)C4=O)C[C@H]2c2ccccc2)c1 | -5 | 0.97
17 | COCCN1C[C@@H](c2nc(C3(NC(C)=O)CCCCC3)no2)CC1=O | 3 | -0.35
18 | Cc1cc(S(=O)(=O)N2CCC[C@H](Cn3cncn3)C2)c(C)s1 | 3 | -0.57
19 | COC(=O)c1cc(C)nc2c1c(=O)n(Cc1ccccc1Cl)c(=O)n2-c1cccc(OC)c1 | -5 | 0.67
20 | Cc1cc(NCc2cn(C)nn2)ccc1F | 3 | -0.57
21 | CC(C)[C@@H]1N[C@@]2(C(=O)Nc3ccc(F)cc32)[C@H]2C(=O)N(CC3CCCO3)C(=O)[C@@H]12 (stereo partly specified) | -6 | 0.78

Row | SMILES | % Inhibition [%] | Z score
22 | Cn1c(=O)c2cn3c(c2n(C)c1=O)[C@@H](c1cccc(F)c1)Nc1ccccc1-3 | -9 | 1.7
23 | O=C(NCC1(CF)CCOCC1)N1CCC(CCc2ccc(F)cc2F)CC1 | -10 | 1.56
24 | CCc1nnc(CS(=O)(=O)c2ccc3ccccc3c2)o1 | 0 | 0
25 | Cc1cc(C)c2c(N3CCCC3)nc(C(=O)N3CCN(C4CCCCC4)CC3)nc2n1 | -5 | 0.77
26 | COc1cccc(CN2C[C@@H](F)[C@@H](OCc3nc4ccccc4o3)C2)n1 | 19 | -2.19
27 | Cc1ccsc1CCNS(=O)(=O)c1ccc2c(c1)OC[C@@H](C(=O)N1CCCCC1)O2 | -21 | 3.63
28 | Cc1cc(C)cc(NC(=O)CC(=O)N[C@H]2CCCCNC2=O)c1 | 1 | -0.12
29 | O[C@H](COc1ccc2c(c1)OCO2)CN1CCCC1 | -14 | 2.46
30 | CC(C)Cn1c(-c2cccc(C(=O)NC3CC3)c2)nc2cccnc21 | -17 | 3.07
31 | Cc1ccc(CN2C[C@]34C=C[C@H](O3)C(C(=O)N3CC(O)C3)C4C2=O)cc1C (stereo partly specified) | -8 | 1.26
32 | OC1CCC(NCc2ccc(-c3ccc(Cl)cc3)s2)CC1 (stereo unspecified) | -3 | 0.52
33 | Cc1cccc(CS(=O)(=O)N[C@@H](C)c2csc(C)n2)c1 | -23 | 2.11
34 | COc1cccc(C[C@H](C)NC(=O)N2CCC(O)(C(F)(F)F)CC2)c1 | -17 | 1.72
35 | N#Cc1ccc(N2CCCN(C(=O)COc3ccccc3)CC2)cn1 | 0 | 0.03
36 | COc1ccc(Nc2nc(Nc3ccc(OC)cc3)nc(N3CC[C@@H]4CCCN4C3)n2)cc1 | 0 | 0.03
37 | O=C(NCCCN1CCOCC1)[C@@]12CCCC[C@H]1N(C1CC1)S(=O)(=O)CC2 | -16 | 1.88
38 | Cn1nc(CCC(=O)Nc2ccccn2)ccc1=O | -18 | 3.68
39 | Cc1cc(C(F)(F)F)n(CCC#N)n1 | -22 | 2.56
40 | Cn1c(-c2cccc(Cl)c2)cn2cc(-c3ccc(-c4ccccc4)cc3)nc12 | -34 | 3.94
41 | O=C1C(=O)N(C2CCCCC2)C(=O)N1Cc1nc(-c2c(F)cccc2F)cs1 | -5 | 0.94
42 | C=CC(C)c1noc(C2(C)CCCN2C(=O)c2ccccc2)n1 (stereo unspecified) | -20 | 2.36

Row | SMILES | % Inhibition [%] | Z score
43 | c1ccc2c(-c3n[nH]cc3CNC[C@@H](c3ccncc3)N3CCOCC3)cccc2c1 | 0 | -0.04
44 | O=C(NC(c1ccccc1)c1ccccc1)N1CCN(c2cnsn2)CC1 | -7 | 0.88
45 | CNc1cc(C(=O)N[C@H]2C[C@H](c3cc(N4CCCC4)ncn3)C2)ccn1 | -8 | 1.3
46 | COCC(=O)N1CCC(c2c[nH]c3ccccc23)CC1 | 8 | -1.11
47 | O=C1C[C@@H](c2ccccc2)N(C(=O)CNC(=O)NC2CCCCC2)CCCCCCN1 | -19 | 2.67
48 | C=CCNC(=O)c1sc(=S)n(CCc2ccccc2)c1N | -6 | 0.7
49 | O=C(Nc1cc(F)ccc1F)OCC(F)(F)F | -16 | 1.41
50 | Cc1oc(-c2ccccc2Cl)nc1Cn1ncc2cccnc21 | -8 | 1.05
51 | O=C(c1ccc(CN2C(=O)CNC2=O)cc1)N1CCC(c2nc3ccccc3s2)CC1 | -17 | 1.93
52 | COCc1c(C#N)c(NCc2ccccc2)nc(C)c1NC(=O)c1ccccc1 | 2 | -0.29
53 | O=C(Nc1ccc(Cl)cc1Cl)c1cc(C(=O)Nc2ccc(Cl)cc2Cl)cc(C(=O)Nc2ccc(Cl)cc2Cl)c1 | 8 | -0.96
54 | CCCc1cc(-c2nc(-c3csc(C(C)C)n3)no2)no1 | -24 | 4.28
55 | COCc1nc(C)cc(NC2CCCC2C(N)=O)n1 (stereo unspecified) | -12 | 1.97
56 | CN(Cc1ccc(F)c(Cl)c1)[C@H]1COC[C@@H]1O | -6 | 0.86
57 | CCC(NC(=O)c1cc(OC)c(OC(C)C)cc1Cl)[C@H]1C[C@H](O)C1 (stereo partly specified) | -1 | 0.07
58 | CN1[C@@H]2CCN(C(=O)Cc3ccccc3F)C[C@@]2(C(=O)N2CCCC2)CCS1(=O)=O | -10 | 1.45
59 | CCS(=O)(=O)N1CCC[C@H](C(=O)NC2CC2)C1 | -7 | 0.75
60 | Cc1cccc(CNC(=O)C2CCN(S(=O)(=O)c3ccc4c(c3)CCCN4C(=O)C3CCC3)CC2)c1 | -18 | 3.36
61 | CNC(=O)C[C@H]1CCN(Cc2nc(C)cs2)C1 | -6 | 0.81
62 | Cc1ccc(F)cc1-c1nnc(NS(=O)(=O)c2ccoc2)o1 | 32 | -3.06
63 | CN1CCCCCCN(C(=O)NC2CCCCC2)CCC1=O | -17 | 2.21

Row | SMILES | % Inhibition [%] | Z score
64 | CNc1nc2c(c(C(=O)N3CCCC3)n1)CN(Cc1cccc(-c3ccc(C)o3)c1)CC2 | -10 | 1.2
65 | COc1cccc(-c2ccc3c(c2)O[C@H]2CN(C4CCCC4)C[C@H]2N(C)C3=O)c1 | -1 | 0.12
66 | CN1C(=O)N[C@](C)(c2ccc(NCc3nnn(C(C)(C)C)n3)cc2)C1=O | -4 | 0.37
67 | Cc1cccc(NC(=O)Cc2nnn[nH]2)c1 | -6 | 0.75
68 | O=C(O)c1ccc([C@H]2CCN(CC(=O)N3CCCCCC3)C2)cc1 | 2 | -0.25
69 | Cc1ccc(CCC(=O)Nc2ccc(C)c(-c3ncco3)c2)o1 | -2 | 0.32
70 | CC1CC1NC(=O)C(NS(C)(=O)=O)C(C)(C)C (stereo unspecified) | 33 | -4.79
71 | C[C@H](NCC1(O)CCCCCC1)c1cc2n(n1)CCC2 | -13 | 1.97
72 | O=C(Nc1cc(-c2ccccc2)ns1)N1CCC[C@H](CO)C1 | -46 | 5.35
73 | NC(=O)CN1CCc2[nH]nc(-c3cccc(F)c3)c2C1 | 2 | -0.44
74 | Cc1cccc(CN2CC(n3cc(C(=O)NCC4CC4)nn3)C2)c1 | -4 | 0.71
75 | O=c1ccncn1CC1CCN(c2ncnc3[nH]ccc23)CC1 | 4 | -0.69
76 | O=C(c1ccc(F)cc1)N1CCN(c2ncnc3c(F)cccc23)CC1 | -13 | 1.94
77 | COCCn1cncc1CNC(=O)CN1[C@H](C)CCC[C@@H]1C | -12 | 1.64
78 | Cc1ccc(C(=O)N[C@H]2CN(C3CCCCC3)C[C@@H]2C2CC2)c(=O)n1C | -11 | 1.83
79 | CCC(=O)Nc1ccc(NC(=O)[C@@H]2CCCN2Cc2ccccc2)c(C)c1 | -1 | 0.16
80 | CCCCC(=O)N(CC(N)=O)Cc1ccccc1 | -12 | 1
81 | O=C(C[C@H]1CCCO1)Nc1cc(Br)c(F)cc1F | 7 | -0.71
82 | Nc1nc(CN2CCC3CCCCC3C2)nc(Nc2ccccc2)n1 (stereo unspecified) | -2 | 0.18
83 | CC1(C)CN(C(=O)c2coc(COc3cccc4cccnc34)n2)CCO1 | -2 | 0.36
